Data as given in paper PMC4336329 (PLoS ONE, 2015).
Among all 310,000 compounds or so, about 14,000 (4.5%) showed an effect of 50% or more. The effect is printed as a negative number. Some of the results follow.

molecular target: human ether-à-go-go-related gene (hERG) potassium channel (human, UniProt Q12809); test: primary screen, population patch clamp on CHO cells stably expressing hERG
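Further: peak tail current of the secondary pulse compared with the same well before compound.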

Sequence of human ether-à-go-go-related gene (hERG) potassium channel (Q12809 whole entry, looked up): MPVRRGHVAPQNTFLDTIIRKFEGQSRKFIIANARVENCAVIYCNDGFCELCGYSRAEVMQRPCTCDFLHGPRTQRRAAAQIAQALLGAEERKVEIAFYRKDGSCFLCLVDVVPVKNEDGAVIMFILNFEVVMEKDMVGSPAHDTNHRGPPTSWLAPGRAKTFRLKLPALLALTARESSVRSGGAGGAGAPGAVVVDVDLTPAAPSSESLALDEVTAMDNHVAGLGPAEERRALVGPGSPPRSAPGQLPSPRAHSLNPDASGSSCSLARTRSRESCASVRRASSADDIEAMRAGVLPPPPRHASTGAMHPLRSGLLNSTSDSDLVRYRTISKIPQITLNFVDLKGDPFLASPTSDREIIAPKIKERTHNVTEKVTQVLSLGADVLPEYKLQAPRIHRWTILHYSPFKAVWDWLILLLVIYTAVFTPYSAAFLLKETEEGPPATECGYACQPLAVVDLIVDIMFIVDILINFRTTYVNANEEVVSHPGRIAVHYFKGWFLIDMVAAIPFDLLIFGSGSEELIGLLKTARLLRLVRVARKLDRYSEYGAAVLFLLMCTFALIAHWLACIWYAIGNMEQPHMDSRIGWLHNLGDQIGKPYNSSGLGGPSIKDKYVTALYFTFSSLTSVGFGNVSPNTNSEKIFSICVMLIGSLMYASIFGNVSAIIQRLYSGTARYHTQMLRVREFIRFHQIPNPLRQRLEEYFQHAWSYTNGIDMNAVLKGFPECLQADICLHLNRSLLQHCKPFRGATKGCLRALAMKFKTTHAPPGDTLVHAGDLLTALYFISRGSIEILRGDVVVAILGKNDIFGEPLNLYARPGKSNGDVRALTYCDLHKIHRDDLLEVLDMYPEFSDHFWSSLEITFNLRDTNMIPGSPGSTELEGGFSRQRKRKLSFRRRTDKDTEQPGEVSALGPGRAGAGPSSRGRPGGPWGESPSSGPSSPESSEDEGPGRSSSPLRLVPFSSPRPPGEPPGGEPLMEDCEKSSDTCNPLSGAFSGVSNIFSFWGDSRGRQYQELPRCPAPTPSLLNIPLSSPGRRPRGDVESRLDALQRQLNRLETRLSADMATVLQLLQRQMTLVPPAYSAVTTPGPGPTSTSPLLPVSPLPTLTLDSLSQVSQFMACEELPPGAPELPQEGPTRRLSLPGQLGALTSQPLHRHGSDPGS

Structure (SMILES)	hERG current change (%, negative = inhibition) at 10uM [%]
COc1ccc(CCNC(=O)[C@@H](NC(=O)N2CC(=O)Nc3ccccc32)C(C)C)cc1OC	16.8
CCCc1nc2nc(C)c(NS(=O)(=O)c3ccc([N+](=O)[O-])cc3)c(=O)n2[nH]1	13.9
CCc1ccc(Nc2nnc(SCC(=O)Nc3cccc(S(=O)(=O)NC4=NCCCCC4)c3)s2)cc1	11.6
CCOc1cc(N2CCOCC2)c(OCC)cc1NC(=O)c1ccccc1	15.7
COc1ccc(OCCCC(=O)Nc2ccc(N3CCCCC3)cc2)cc1.Cl	-1.87
Cc1cc(S(=O)(=O)N2CCCOC2CNC(=O)C(=O)NCc2cccs2)ccc1F (stereo not drawn)	13.4
COc1cccc(NC(=O)CN(C)C(=O)c2cc3c(s2)CCCCC3)c1	-8.53
Cc1ccc(-n2ncc3c(=O)n(-c4ccc(C)c(C)c4)c(-c4ccco4)nc32)cc1	-3.38
CCCOn1c(-n2nc(C)cc2C)nc2ccccc2c1=O	8.66
COc1ccc(CC(=O)N(CC2CCCO2)c2nc3ccccc3s2)cc1 (stereo not drawn)	-3.7
CCC(CC)COC(=O)C1=C(C)NC(=O)NC1c1ccc(N(C)C)cc1 (stereo not drawn)	27.8
Cc1oc(-c2ccc(Cl)cc2)cc1C(=O)/C(C#N)=C/Nc1cccc(OC(F)(F)F)c1	1.1
Cc1cccn2cc(CCNS(=O)(=O)c3ccc4c(c3)OCCO4)nc12	-4.57
COc1ccccc1Nc1nc2nonc2nc1N1CCCCC1C (stereo not drawn)	13
CCOC(=O)N1CCN(S(=O)(=O)N(C)C)CC1	6.78
COc1cccc(C2CC(c3ccc(C)cc3)n3ncnc3N2)c1 (stereo not drawn)	-21.4
COc1ccccc1-n1ccnc(SCC(=O)NC2CCCCC2)c1=O	9.93
CCOc1ccccc1NS(=O)(=O)c1ccc(OC)c(OC)c1	15.4
CCN(CC)S(=O)(=O)c1cccc(-c2nnc(SCC(N)=O)n2CCc2ccccc2)c1	-37.3
CC1CCN(C(=O)CNS(=O)(=O)c2ccc(Br)s2)CC1	-20
CCOC(=O)C1C(=O)CC(C)(O)C(C(=O)OCC)C1c1ccco1 (stereo not drawn)	-4.04
CC(=O)Nc1cccc(Oc2cc(C#N)c(C#N)cc2N2CCOCC2)c1	-19.8

Structure (SMILES)	hERG current change (%, negative = inhibition) at 10uM [%]
COc1ccc(C(=O)N/N=C/c2sc3ccccc3c2O)cc1	0.939
Cn1c(N)c(-c2nc3cccnc3n2C)sc1=S	62.2
O=C1C2CCCN2C(=S)N1C1CCCCC1 (stereo not drawn)	-3.32
COc1ccc(CCNC(=O)CSc2n[nH]c(N)n2)cc1OC	30.1
CCOc1ccccc1N(C(=O)CNC(=O)c1ccco1)C(C(=O)NC(C)(C)C)c1ccncc1 (stereo not drawn)	5.92
S=c1[nH]nc(-c2cc(-c3ccccc3)n[nH]2)n1/N=C/c1ccccc1	23.8
CCOC(=O)/C(C#N)=N/Nc1ccc(S(=O)(=O)N2CCc3ccccc32)cc1	2.18
CCCC(=O)OCCNc1cc(Sc2nccn2C)c2nonc2c1[N+](=O)[O-]	3.02
CCSc1nnc(-c2sc3nnc(-c4ccccc4)c(-c4ccccc4)c3c2N)o1	15.6
COc1ccc(CN2C(=O)[C@@H]3C(c4ccc(F)cc4)=NO[C@@H]3C2=O)cc1	5.66
CCC(C)(C)n1nnnc1CN1CCC(O)(c2cccc(C(F)(F)F)c2)CC1	16.9
Nc1cc(=O)nc(SCC(=O)Nc2cccc3ccccc23)n1CCc1ccccc1	-7.07
Cc1ccc(OCC(=O)N(C)CC(=O)Nc2ccc(N3CCOCC3)cc2)cc1	8.02
O=C(Nc1ccc2c(c1)OCCO2)C1CC(c2ccc(F)cc2)=NO1 (stereo not drawn)	12.3
CC(=O)Nc1cc(NC(C)=O)cc(C(=O)OCC(=O)N(c2ccccc2)C2CCS(=O)(=O)C2)c1 (stereo not drawn)	6.26
Cc1ccc(NC(=O)COC(=O)c2ccc3c(c2)OCCO3)cc1	-2.92
C=CCn1c(=O)c(C(=O)Nc2ccccc2O)c(O)c2ccccc21	13.9
CC(C)NC(=O)CN(C(=O)CCC(=O)Nc1ccccn1)c1ccc(F)c(Cl)c1	10.4
COc1ccc2c(c1)O/C(=C\c1sccc1C)C2=O	1.08
COc1ccc(N2CCN(C(=O)c3ccc(NS(=O)(=O)c4ccc(F)cc4)cc3)CC2)cc1	-40.5
Cc1ccc(C)c(CNc2ccc(S(=O)(=O)N3CCCCC3)cc2)c1	3.98
CC(C)(C)C(=O)c1cnc(Nc2ccccc2Cl)s1	2.2

Structure (SMILES)	hERG current change (%, negative = inhibition) at 10uM [%]
COc1ccc(-n2c(COc3cccc4ccccc34)nnc2SC(C)C(=O)O)cc1 (stereo not drawn)	5.74
CC(C)(C)n1ncc2c(=O)n(Cc3ccc(Cl)cc3Cl)cnc21	14.5
CC(OC(=O)Cc1n[nH]c(=O)c2ccccc12)C(=O)Nc1cc(Cl)cc(Cl)c1 (stereo not drawn)	-16.8
O=C(Nc1ccccc1Cl)C1CCCN1C(=O)OCc1ccccc1 (stereo not drawn)	17.4
COc1ccc(C(=O)NC(=S)NCC2CCCO2)cc1 (stereo not drawn)	5.02
Cc1cc2nc(-c3ccc(SCc4ccc(C#N)cc4)nc3)[nH]c2cc1C	-6.28
COc1cccc(-c2nnn(C/C(N)=N/O)n2)c1	14.8
CC(CCc1ccc(O)cc1)NC(c1ccccc1)c1ccc(Cl)cc1 (stereo not drawn)	-14.3
COc1ccc2c(CCNC(=O)c3ccco3)c[nH]c2c1	-1.53
COc1ccc(N(C(=O)CNC(=O)c2ccco2)C(C(=O)NCC2CCCO2)c2ccccc2)cc1OC (stereo not drawn)	5.07
CNC(=O)NC(=S)NC(=O)c1ccc(OC)cc1	2.01
CCC1Oc2ccccc2N(CC(=O)N2CCOCC2)C1=O (stereo not drawn)	11
CCCN1C[C@H](CSC)C[C@@H]2c3cccc4[nH]cc(c34)C[C@H]21.CS(=O)(=O)O	-35.3
CCn1c(SCC(N)=O)nnc1-c1ccco1	3.15
CCCCCn1c(SCc2ccncc2)nc2cc(C(=O)NCc3ccco3)ccc2c1=O	-22
Cc1nc(-c2ccc(S(=O)(=O)NCc3ccccn3)s2)cs1	4.5
O=C(O)c1cc([N+](=O)[O-])ccc1NCc1ccccn1	12.7
CC1(C(=O)O)CCC(C(=O)Nc2ccc(OC(F)(F)Cl)cc2)C1(C)C (stereo not drawn)	20.9
O=C(CSc1nnc(-c2ccccc2Br)o1)N1CCOCC1	13.1
CC(=O)Nc1ccc(OCC(O)Cn2c3ccccc3c3ccccc32)c(C)c1 (stereo not drawn)	15.5
COc1ccc(-c2nc3ccccc3c(C(=O)Nc3ccc(S(=O)(=O)Nc4cc(C)on4)cc3)c2C)cc1	-7.09
CC(=O)NC(=S)Nc1ccc(S(=O)(=O)Nc2nc(C)cc(C)n2)cc1	39.5

Structure (SMILES)	hERG current change (%, negative = inhibition) at 10uM [%]
CCCc1nc2ccccc2c(=O)n1-c1ccccc1OC	0.584
Cc1ccccc1N1C(S)=C(C#N)C(=O)NC1c1ccco1 (stereo not drawn)	0.877
CCOc1ccc(S(=O)(=O)N2CCC(C(=O)NCC3CCCO3)CC2)cc1Cl (stereo not drawn)	-9.19
CSc1ccccc1OCc1cc(C(=O)N2CCN(Cc3nccn3C)CC2)no1	-44.3
CN1C(=O)NC(=O)/C(=C\c2ccc([N+](=O)[O-])o2)C1=O	15.3
O=S(=O)(Nc1ccc(OC(F)F)cc1)c1ccc(-c2ccon2)s1	-15.3
CCc1ccc(CN(C)C(=O)C2CCC(=O)N(Cc3ccccn3)C2)cc1 (stereo not drawn)	-1.48
CC1(C)CC2CC(C)(CN2C(=O)COC(=O)c2cncc(Br)c2)C1 (stereo not drawn)	-13.6
CCCCC(CC)C(=O)Nc1ccccc1C#N (stereo not drawn)	-4.83
O=C(N1CCN(Cc2ccc3c(c2)OCO3)CC1)C(Cl)(Cl)Cl	-0.14
CC(=O)Oc1ccc(C(=O)Nc2ccc3c(c2)C(=O)N(CCC(=O)O)C3=O)cc1	11.8
O=C(CSc1ncnc2scc(-c3ccccc3)c12)NC1CCS(=O)(=O)C1 (stereo not drawn)	-4.53
N#Cc1c(NCCCO)nc(-c2ccccc2)c2c1CCCC2	-6.44
CCc1ccc(NC(=O)C2CCN(S(=O)(=O)c3c(C)[nH]c(=O)[nH]c3=O)CC2)cc1	-1.88
O=C(COc1ccc(Cl)cc1)OCC(=O)N1CCCC1	9.51
COC(=O)C1=C(c2ccc(C(C)=O)cc2)C[C@@H]2CC[C@H]1N2C(=O)N1CCC(C)CC1	-24.2
COc1ccc(-c2nn(Cc3ccccc3)cc2C(=O)N2CCN(c3ccccn3)CC2)cc1OC	-42.3
CCn1cc2c(c1-c1cccc(C)c1)c(=O)n(C)c(=O)n2C	6.03
c1ccc(-n2ncc(-c3nn[nH]n3)n2)cc1	13.3
NC(=O)C1CCCN(Cc2ccc3ccccc3c2)C1 (stereo not drawn)	4.89
CSc1ccccc1C(=O)Nc1cccc(C(C)=O)c1	1.31
